From publication PMC4242493
The other results are listed elsewhere or left out. The list includes weakly bound sequences.

biological target: MaxL homodimer (UniProt P61244); test: universal protein-binding microarray (PBM); conditions: PBS-based mixture, 10 nM His-tagged protein dimer, 2% milk, 200 ng/uL BSA, 50 ng/uL salmon testes DNA, 0.02% TX-100; detection with Alexa 488 anti-His …; high values mean tight binding; most listed sequences are background and not binding sites; double strand, one strand shown
UniProt P61244, sequence (P61244 whole entry): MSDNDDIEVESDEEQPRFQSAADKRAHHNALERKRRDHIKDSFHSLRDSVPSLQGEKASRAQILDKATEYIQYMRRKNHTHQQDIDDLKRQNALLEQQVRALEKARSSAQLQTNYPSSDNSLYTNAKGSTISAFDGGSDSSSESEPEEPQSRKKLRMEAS

Row | Sequence | binding signal (normalized occupancy)
1 | GTAAGTGA | 0.0729
2 | GTTCCCAA | 0.0687
3 | CAAGGGAA | 0.0781
4 | GCTAGGCA | 0.072
5 | ATCAGCCG | 0.0692
6 | CATTGGCG | 0.0762
7 | CCGCGGAA | 0.0678
8 | GACCTATA | 0.0756
9 | GCAAAGAC | 0.0719
10 | GGTGCGAA | 0.0742
11 | ACGAGTTC | 0.0822
12 | GCGAAGAC | 0.0682
13 | CGTGGGGC | 0.0907
14 | CAAGCTTC | 0.0672
15 | ACGGGTGA | 0.0801
16 | CAATAAGA | 0.0771
17 | CATATTTC | 0.0835
18 | CTAACAAC | 0.0738
19 | AGCTCACG | 0.0767
20 | ATCCATCC | 0.0859
21 | AACTCCTC | 0.077
22 | TAACCCTA | 0.0802
23 | GCTCAAAC | 0.0655
24 | CCGTCGAG | 0.0678
25 | CTGATAAC | 0.0739

Row | Sequence | binding signal (normalized occupancy)
26 | CACCTGTA | 0.0889
27 | GACGACGC | 0.073
28 | ACCTCACA | 0.0843
29 | GAGGCGAC | 0.0701
30 | GATCCGAC | 0.0782
31 | AAATATTA | 0.0872
32 | CCTACAGG | 0.0722
33 | CTCCTAAC | 0.0792
34 | AGTATTTC | 0.0732
35 | ACTAACTA | 0.0735
36 | TCGCCTCA | 0.0678
37 | GAACGGAC | 0.0657
38 | AACTTTCC | 0.0742
39 | ACGTCGAA | 0.0724
40 | ATGGCCTC | 0.0726
41 | CTCTATAC | 0.0791
42 | AGTGACAC | 0.0824
43 | AAATTTGA | 0.0723
44 | AACATTAC | 0.0803
45 | ATCCTTTC | 0.0778
46 | ATTGCTAG | 0.0703
47 | CATGTCCG | 0.0872
48 | GGGAACAC | 0.0757
49 | CGTATACC | 0.08
50 | CAACAGCA | 0.0758

Row | Sequence | binding signal (normalized occupancy)
51 | ACTACGAG | 0.0744
52 | GACAGTTA | 0.0705
53 | CAGTTTCG | 0.0698
54 | CAGACATC | 0.0793
55 | ACAAAATC | 0.0707
56 | ATTTCGGG | 0.072
57 | TAAGCGAA | 0.0718
58 | TACATCTA | 0.0787
59 | CTACCAAC | 0.0699
60 | CACTACTC | 0.0745
61 | AGACAGAA | 0.0751
62 | ATTCGGCA | 0.0728
63 | ATCCTAAC | 0.08
64 | CCACGCAA | 0.0865
65 | ACGGTTGA | 0.0809
66 | GCCAGATA | 0.0766
67 | TAAAGATA | 0.0727
68 | CGCATACG | 0.0728
69 | CCGTGGTA | 0.0806
70 | GTTCCCCA | 0.0775
71 | CTAGCACC | 0.0742
72 | AAGTTCTG | 0.0725
73 | CGAACAGA | 0.0737
74 | AACGTACT | 0.0746
75 | GTCCCCCA | 0.0848

Row | Sequence | binding signal (normalized occupancy)
76 | CTACATGC | 0.089
77 | ACTGTTCC | 0.0738
78 | GAATGTCC | 0.0733
79 | CGCACCCC | 0.0893
80 | ACATCGCC | 0.0791
81 | CATTAATG | 0.0812
82 | GATACAGA | 0.0787
83 | GAAACACA | 0.0834
84 | CACCATAG | 0.079
85 | AACAGCGC | 0.0715
86 | AGGCGCCC | 0.0693
87 | CAAAGGCC | 0.0706
88 | TAGACCGA | 0.0717
89 | AATTATTC | 0.0811
90 | ACACCTGG | 0.0881
91 | TATGAAAA | 0.0815
92 | CCATCCAG | 0.0758
93 | CAGCCGGA | 0.0698
94 | CAAGCATA | 0.0775
95 | GAAATATC | 0.0717
96 | GAGAATTA | 0.0747
97 | AACATCAC | 0.0837
98 | CCTAGAGG | 0.074
99 | GCATTCGA | 0.0769
100 | CCAATGGA | 0.0747

Row | Sequence | binding signal (normalized occupancy)
101 | AGTTGCCC | 0.0732
102 | ATGGTAAA | 0.0767
103 | GTCGCGGA | 0.068
104 | AGTCTCTA | 0.0746
105 | AATTAAGT | 0.0713
106 | ACATTTTA | 0.0797
107 | CCCCACCC | 0.0931
108 | AGGCAGCC | 0.0705
109 | ACAAGCCT | 0.0729
110 | CATCGAGC | 0.0825
111 | AAGAGAAG | 0.0777
112 | ACCAACGG | 0.0739
113 | TAACGCTA | 0.0804
114 | ACCAATTC | 0.0738
115 | ACCCAGTC | 0.0736
116 | TCAAGCGA | 0.0732
117 | CGTGGTCA | 0.102
118 | TGTTGTAA | 0.0748
119 | TATATATA | 0.0875
120 | CGAAGCTA | 0.0669
121 | ACCGGCTA | 0.0707
122 | CCATTAAC | 0.0853
123 | GTATTTGA | 0.0761
124 | AGTGAAAC | 0.0748
125 | ATGCGATC | 0.0837

Row | Sequence | binding signal (normalized occupancy)
126 | AGTTCTTG | 0.0754
127 | CTCCTATA | 0.0818
128 | ATCTAGGG | 0.0776
129 | TACCTGGA | 0.0737
130 | AGAGAACT | 0.0671
131 | CTAACCCC | 0.0809
132 | GCGAGACA | 0.0763
133 | ATGGGAGG | 0.077
134 | ACAAGAGA | 0.0717
135 | AAGCATCT | 0.0778
136 | ATCTTTGA | 0.0714
137 | CATGACTA | 0.091
138 | AAGCCAAC | 0.0708
139 | GCTTTGTA | 0.0706
140 | CAAGAGAG | 0.0689
141 | CGTTACTA | 0.0794
142 | GGCATGGA | 0.0929
143 | GTAGGGGA | 0.0763
144 | AACTGACA | 0.0741
145 | CTCATTGC | 0.0792
146 | AGGTTAAA | 0.0747
147 | AGTCGGTG | 0.0703
148 | AGGAACTG | 0.0672
149 | CGTGTTCA | 0.1
150 | CTTACATA | 0.077

Row | Sequence | binding signal (normalized occupancy)
151 | AGCACCAA | 0.0705
152 | GGCAGCTA | 0.0679
153 | ACCCTGAC | 0.0719
154 | CCCTCTGC | 0.073
155 | CCACGGAC | 0.0742
156 | ATGGTAGG | 0.0818
157 | GACATTGC | 0.0757
158 | AGGCCGGC | 0.0665
159 | CTACATAC | 0.0842
160 | ATTACCTA | 0.0784
161 | GCAAAATA | 0.0747
162 | TACACACA | 0.0876
163 | CGGTTAAC | 0.0762
164 | AGGAATGC | 0.0737
165 | ACTATGCG | 0.0817
166 | CCCACACG | 0.0879
167 | AACTATCT | 0.0758
168 | CATCTACG | 0.08
169 | GTCGCATA | 0.0781
170 | CCTAAATC | 0.0717
171 | CACAATGA | 0.0798
172 | AGCATTTG | 0.0806
173 | GCTCTCGA | 0.0695
174 | CGTATAAA | 0.0772
175 | CTCCGCTA | 0.071

Row | Sequence | binding signal (normalized occupancy)
176 | AAAGCGCC | 0.0648
177 | AGAGCGGA | 0.0697
178 | CACGACCA | 0.0817
179 | GTGTATCA | 0.0882
180 | CGGAAGAA | 0.0742
181 | ACTCTTGA | 0.0749
182 | ACATATGA | 0.0952
183 | ATTGCCTG | 0.0717
184 | GAGCGTTA | 0.0762
185 | ACCGAGCG | 0.0658
186 | GCTGTGAC | 0.0796
187 | GCAAAGCA | 0.0727
188 | AGAGGTAC | 0.07
189 | CCACCGCG | 0.0731
190 | ACCATCGC | 0.0769
191 | AGGTACCG | 0.0708
192 | ATAGCGCG | 0.0771
193 | ACATGCTA | 0.106
194 | ACGAGGAA | 0.0843
195 | GTTGCAAA | 0.0706
196 | CACAATAC | 0.0813
197 | CATCACGG | 0.0829
198 | CGATCCGC | 0.0734
199 | GCAGTTCA | 0.0696
200 | CACTAGCA | 0.0786

Row | Sequence | binding signal (normalized occupancy)
201 | CCTCTTCC | 0.0725
202 | AACACTCT | 0.0798
203 | AGACCGTA | 0.0748
204 | TCGTACCA | 0.0784
205 | CGTCGACA | 0.0772
206 | ATGATTGC | 0.0863
207 | ATTCACCC | 0.0772
208 | GTGGGATA | 0.0873
209 | CCATTGGG | 0.0717
210 | CTGAGTAA | 0.0757
211 | ACCGGCGA | 0.0659
212 | ATCTTCTA | 0.0773
213 | GTAAGACA | 0.0774
214 | GTGCCTCA | 0.0779
215 | CCATTATC | 0.0782
216 | ACGCCCCC | 0.0803
217 | ACGTCTGG | 0.0743
218 | ATACCAAG | 0.0759
219 | TCGAGGAA | 0.0734
